Consider 167 variants from the RNAGym collection of RNA variant scans (doi:10.1101/gad.245936.114).

The labels stand for the following.
B1: tRNA (parent)
chain: CUCUCGGUAGCCAAGUUGGUUUAAGGCGCAAGACUUUAAUUUAUCACUACGAAAUCUUGAGAUCGGGCGUUCGACUCGCCCCCGGGAGAUUUUUUCCUCGAGCAA

Variants at the floor of the assay are shown more often than the library holds them.

In the data set the parent is B1. Kind of data set: nonsense suppression (GFP-seq) (ratio to wild type); higher = more function; SUP4oc tRNA, yeast GFP reporter sort-seq. An outline of the steps: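 Yeast were grown in raffinose/galactose medium with 80 mg/L adenine, each strain bearing a genome-integrated ochre-suppressor tRNA variant from a ~3% random-mutation library, a galactose-driven GFP ochre reporter, and RFP. After sorting into GFP/RFP bins, every bin was sequenced on an Illumina platform at phred ≥30. The GFPSEQ value, a measure of nonsense suppression, is the weighted bin median GFP/RFP relative to the unmutated parent tRNA, using each variant's estimated cell share per bin as the weight. Only variants with ≥100 reads and ≥30 cells were included.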
As to A9C A30C A33G A62C, the nonsense suppression is ≤ 0.026.

With C3G A33U, the nonsense suppression is ≤ 0.026.

In the case of U16A U17G, the nonsense suppression was 1.16. Next, C56U G67A: ≤ 0.026; U20A C34G C68A: ≤ 0.026.

U2A C3A A24U: the nonsense suppression was ≤ 0.026. Next, C29G U55A G61C: ≤ 0.026; U8A C82U C83A: ≤ 0.026; C27G G32U: ≤ 0.026. Next, G19A G25A C27G: ≤ 0.026. In the case of C5U C27U U55C G84A, the nonsense suppression is ≤ 0.026. Next, A31U C77G: ≤ 0.026; C11U U58C U70A G86A: ≤ 0.026; G26U G66A G78A A87C: ≤ 0.026. Next, U4G A9C C64A A74C: ≤ 0.026; C1U U21A A24U A74U: ≤ 0.026; G25A G86U: ≤ 0.026. Next, A33U U63G: ≤ 0.026; A23G A30U U58A U63A G85U: ≤ 0.026. Take A24C G25C A62U: the nonsense suppression is ≤ 0.026. Next, A23G A24U U76A: ≤ 0.026; A14U G61C G67C: ≤ 0.026; A9C A30G: 0.171. On to U55A U76A G86A, for which the nonsense suppression is ≤ 0.026.

In the case of C34A A74U, the nonsense suppression is ≤ 0.026. Next, G10C C56A: ≤ 0.026; C11U U16C C68G: ≤ 0.026. For the variant G26U A33U, the nonsense suppression was ≤ 0.026. Next, G18U G88A: ≤ 0.026; G18C G25C A30G: ≤ 0.026; G6A G7C: ≤ 0.026. Turning to C3U C27U U63G G65C, the nonsense suppression is ≤ 0.026. For U22A C75U, the nonsense suppression turned out to be 1.15. Next, C1U U8A: ≤ 0.026; C11G U22A U35C U63A C77G: ≤ 0.026. Next, G67A C82A G88U: ≤ 0.026; C3U C34G: ≤ 0.026; U57A U70A U76G: ≤ 0.026. A14G C27U G78C: the nonsense suppression is ≤ 0.026. With U2G G61U G67C, the nonsense suppression is ≤ 0.026. Next, C1A A60C G85A: ≤ 0.026; A9G C11U G15C G32U C34U G67C C80G: ≤ 0.026. Next, A23C A30G G86U: ≤ 0.026; C11A G28U: ≤ 0.026; U16C U58A G69A: ≤ 0.026.

For C12G C29G A62C, the nonsense suppression was ≤ 0.026. Next, C64G C82G: ≤ 0.026; G10U C11U C27G U55G A74G: ≤ 0.026; C1A G6C G7A: ≤ 0.026. Next, G7A A24U A87G: ≤ 0.026; G15C C27A C34U G61C: ≤ 0.026. As to U16C A33U G65A C68U C83G, the nonsense suppression was ≤ 0.026. Take G26C U63A: the nonsense suppression is ≤ 0.026. In the case of C34U U55C, the nonsense suppression is ≤ 0.026. Next, G15A U63A A89U: ≤ 0.026; U16G U20A C34G: ≤ 0.026; C11U G28A A33G: ≤ 0.026. Next, A13C U63A A89U: ≤ 0.026; G7U A14U A24G U35G A60U G69U U70A: ≤ 0.026. Next, C64A C81U G88U: ≤ 0.026; G65C C82G: ≤ 0.026. C12U A24U U71G: the nonsense suppression is ≤ 0.026. Regarding C79G C80U, the nonsense suppression was ≤ 0.026. U16G C79A: the nonsense suppression was ≤ 0.026. For the variant G67A A87C, the nonsense suppression was ≤ 0.026. On to A14C U35A A74G C75U, for which the nonsense suppression was ≤ 0.026. Next, C11G A23C: ≤ 0.026; G15C G73U: ≤ 0.026; A54U C80G: ≤ 0.026. Next, U17G G25U: ≤ 0.026.

With G10A A54C, the nonsense suppression came out at 0.0309. Consider U22C A54C, for which the nonsense suppression was determined as 1.2. Next, C3G U4C: 0.399; G15C A33U G61A: ≤ 0.026; G6U G10U A24C C29G A31G: ≤ 0.026. Next, U8C U21A A60U: ≤ 0.026. Next, U4A U17C U63A C82A: ≤ 0.026; G7C G73A: ≤ 0.026. For U2C U35A, the nonsense suppression is ≤ 0.026. Next, C29A G65C U71G: ≤ 0.026; U16G U57G U58C G66U C77A A89C: ≤ 0.026. On to C3A U35C, for which the nonsense suppression was ≤ 0.026. Next, A13C G78C G88A: ≤ 0.026; C11A A33G: ≤ 0.026; C12G: ≤ 0.026. Regarding C3U U4C A62G G84C, the nonsense suppression was ≤ 0.026.

As to G28C C34A C68G A89G, the nonsense suppression is ≤ 0.026. Next, U20A C34G G66A: ≤ 0.026; C80U C81G: ≤ 0.026; U71A A74U: ≤ 0.026. Next, C29U A87U: ≤ 0.026.

For A9C C77U, the nonsense suppression was ≤ 0.026. With U2C C11G C12U, the nonsense suppression was ≤ 0.026. Next, A9C U20G G85U: ≤ 0.026; U2G A87G: ≤ 0.026. Next, U22G A23C C83G: ≤ 0.026; U4C A14U G59U U71C U76A G86C: ≤ 0.026.

Turning to U21G G28A G67C G84C, the nonsense suppression was ≤ 0.026. Next, U35C G61A: 0.0378; G10U A31U: ≤ 0.026.

Consider U57A A62G, for which the nonsense suppression was ≤ 0.026. Next, U20A C83G: ≤ 0.026. Next, G7C A24U A60G: ≤ 0.026; C12U C27U A30G A31C: ≤ 0.026; C1U G65C U71G C75A: ≤ 0.026. Next, A9U A13U A54G: ≤ 0.026. Turning to C3A C12A U70C, the nonsense suppression is ≤ 0.026. Next, C81A G88U: ≤ 0.026; G7A G26U: ≤ 0.026; A9G C72A: 0.0268.

In the case of G32A A54U G59C, the nonsense suppression was ≤ 0.026. For the variant A13U C81G G84U, the nonsense suppression was ≤ 0.026.

As for A14G C29U G88C, the nonsense suppression is ≤ 0.026. A9G U58C G66C C72G: the nonsense suppression is ≤ 0.026. Next, G7C A9G U16G U71A C82U: ≤ 0.026.

Turning to U2A C3G C27G C29G A33U, the nonsense suppression is ≤ 0.026. Next, U21G G32U C56G G66U G85C: ≤ 0.026; C1A C3A: ≤ 0.026; C3G U21C A24C G73U: ≤ 0.026. Next, C29U U55A C79U G88A: ≤ 0.026; G7A A23G A74U C81G: ≤ 0.026; G18C U76G: ≤ 0.026. Next, C3G G26C: ≤ 0.026; G10C A13G G15A U57C: ≤ 0.026; C34U G66A: ≤ 0.026.

With A9C U22G U35A C56U, the nonsense suppression is ≤ 0.026. Turning to C3U U16A U20G C83U, the nonsense suppression was ≤ 0.026. Next, U2A C56A A62G: ≤ 0.026. Next, C1G U71A C79G: ≤ 0.026. Turning to C1A C34U C75U, the nonsense suppression is ≤ 0.026.

For U8C A13U C34U C79A, the nonsense suppression is ≤ 0.026. Next, G7U C29G G69U: ≤ 0.026; A9C G26U A31C G84U: ≤ 0.026; A9U G88A: 0.0329. U16G G25A: the nonsense suppression is ≤ 0.026. With G7U U21G G88C, the nonsense suppression was ≤ 0.026. Next, U35A G73U G84C: ≤ 0.026; C27G U35G: ≤ 0.026; G32U G67A U71G: ≤ 0.026. C5G A74U: the nonsense suppression is ≤ 0.026. Next, G19A A30G A31G U35G C75G: ≤ 0.026; C29G A54C U55A: ≤ 0.026; A24U U63C G65A U70G C83A A89C: ≤ 0.026. Consider G26C U35C U58A, for which the nonsense suppression was ≤ 0.026.

Take C34A G61A A89G: the nonsense suppression is ≤ 0.026. Next, C83A G88C: ≤ 0.026.

As for U4C A23G C29U G32A, the nonsense suppression is ≤ 0.026. Turning to U35A G88A, the nonsense suppression is ≤ 0.026. For the variant U4G G7U C27A, the nonsense suppression is ≤ 0.026. As for G7C G10A C68G, the nonsense suppression was ≤ 0.026. Next, C11A U57G: ≤ 0.026; C1G G6U G66U: ≤ 0.026; C56A C82A A89C: ≤ 0.026. As to A23G C83A, the nonsense suppression is ≤ 0.026.

Regarding C1G U4A A54G, the nonsense suppression is ≤ 0.026.

U71C C81A: the nonsense suppression is ≤ 0.026. Next, A54U C56A: ≤ 0.026. Consider C12U G65C C81A, for which the nonsense suppression is ≤ 0.026. Next, A23G G61C G86U: ≤ 0.026; A24G G73C C82A G85C: ≤ 0.026. Next, U21C G28U A31U A33G G78U C79A: ≤ 0.026. Next, G15U C34G G67C A74G: ≤ 0.026; U17A A23C C56A U58A C72A G78A: ≤ 0.026; A13C C75A: 1.09. As for C5G G85A, the nonsense suppression is ≤ 0.026. Next, U17C A30U: 0.16. For the variant U63A G69A, the nonsense suppression was ≤ 0.026.
